Test results taken from PubChem BioAssay AID1508649 (National Center for Advancing Translational Sciences (NCATS), 2021).
In all, about 43,000 compounds went through this assay and about 830 (1.9%) were called active. The shares of active, inactive and inconclusive entries below differ from those in the screen. Rule for the calls: active = clear falling dose curves in both reporters; inconclusive = both reporters move, but less clearly or upward; inactive = either reporter flat; the % is the NLuc reporter signal. Potencies of inconclusive entries are left out as doubtful fits.

Experiment: Cell-based coincidence reporter assay to measure PMP22 gene transcription in S16 Pmp22-F2sN cells - Primary screen
Settings: S16 Pmp22-F2sN Schwann cells (luciferase reporters placed in the Pmp22 gene), FLuc/NLuc coincidence luminescence, 24 h; measured here: NLuc reporter readout, at 57.5 µM (top of the series); activity change, negative = inhibition: at the top concentration
Outline: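 Luminescent read-out of sequential FLuc and NLuc signals from a reporter embedded in the Pmp22 3' UTR of S16 Schwann cells, taken after 24 h compound exposure at 37C; compounds reducing both signals score as inhibitors of expression.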
% is set by controls: 0 for no effect and ±100 for the full control effect; potency is the fitted concentration of half-maximal effect; tags give direction and shape of the fitted curve.

| Compound | Potency | activity change, negative = inhibition |
| --- | --- | --- |
| COc1ccc(CNC(=O)CSc2nc(-c3ccc(OC)c(OC)c3)cc(C(F)(F)F)n2)cc1 | inconclusive [phenotype inactive, partial curve, poor fit] |  |
| CC(CNC(=O)c1ccc(CSc2nc3ccncc3n2Cc2ccccc2)cc1)c1ccccc1 (configuration not stated) | inconclusive [phenotype inactive, partial curve] |  |
| O=C(Nc1nc2ccccc2s1)c1ccc(S(=O)(=O)N2CCCC2)cc1 |  | inactive: -30.8% |
| CCCn1c(=O)sc2cc(NC(=O)COc3ccc(Cl)cc3)ccc21 | inconclusive [phenotype inactive, single point] |  |
| CCOC(=O)CC(NC(=O)Cn1nnc(-c2ccc(C(F)(F)F)cc2)n1)c1ccc(OC)cc1 (configuration not stated) | inconclusive [phenotype inactive, single point] |  |
| COc1cc(-c2nc(Cn3nnc(C(=O)Nc4ccccc4)c3C)c(C)o2)cc(OC)c1OC | inconclusive [phenotype inactive, partial curve] |  |
| CCOc1ccccc1NC(=O)CSc1nc(=O)[nH]c2c1CCCC2 | inconclusive [phenotype inactive, single point] |  |
| CCCCS(=O)(=O)c1oc(-c2cccs2)nc1S(=O)(=O)c1ccccc1 | active: 1.82 µM |  |
| COc1ccc(S(=O)(=O)NCCc2cc3ccc(C)c(C)c3[nH]c2=O)cc1 | inconclusive [phenotype inactive, single point] |  |
| Cc1ccc(Cl)cc1-n1c(=O)cc(N2CCN(c3ccc(F)cc3)CC2)[nH]c1=O | inconclusive [phenotype inactive, partial curve, poor fit] |  |
| CN(C(=O)CSc1nc2ccc(NC(=O)COc3ccc(Cl)cc3)cc2s1)c1ccccc1 | inconclusive [phenotype inactive, single point] |  |
| CCCN(CCC)S(=O)(=O)c1ccc2c(c1)N(CC(=O)NCc1ccc(F)cc1Cl)C(=O)CS2 | inconclusive [phenotype inactive, single point] |  |
| CN1CCN(C(=O)Cn2c(-c3cccs3)cc3cc(Cl)ccc32)CC1 | inconclusive [phenotype inactive, single point] |  |
| O=C(COCc1cc(-c2ccc(F)cc2)on1)Nc1cccc(Cl)c1Cl | inconclusive [phenotype inactive, single point] |  |
| Cc1ccc(NS(=O)(=O)c2ccc3c(c2)n(C)c(=O)n3C)cc1C | inconclusive [phenotype inactive, single point] |  |
| COc1ccc(S(=O)(=O)c2cn(CC(=O)Nc3cc(C)ccc3C)c3ccccc3c2=O)cc1 |  | inactive: -2.72% |
| COc1ccc(-c2cc(C(F)(F)F)nc(SCCC(=O)Nc3ccccc3F)n2)cc1 |  | inactive: -12.8% |
| CCOC(=O)c1ccccc1NC(=O)CSc1ccc(-c2cccs2)nn1 | inconclusive [phenotype inactive, single point] |  |
| COc1ccc(NS(=O)(=O)c2cc(Br)cc3c2N(C(=O)C2CC2)CC3)cc1OC | active: 13.9 µM |  |

| Compound | Potency | activity change, negative = inhibition |
| --- | --- | --- |
| N#Cc1ccc(NC2=NS(=O)(=O)c3ccccc32)cc1 | inconclusive [phenotype inactive, partial curve, poor fit] |  |
| Cc1ccc(NS(=O)(=O)c2ccc3[nH]c4c(c3c2)CCCCCC4)cc1 | inconclusive [phenotype inactive, single point] |  |
| COc1ccc(CNC(=O)c2cccc(N3CCCS3(=O)=O)c2)cc1OC | inconclusive [phenotype inactive, partial curve] |  |
| Cc1cc(C)cc(NC(=O)c2cnn(-c3ccc(C)c(C)c3)c2C2CCNCC2)c1 | inconclusive [phenotype inactive, partial curve] |  |
| CC(C)Cn1c(=O)c2ccccc2n2c(CCC(=O)NCc3ccc(Cl)cc3)nnc12 | inconclusive [phenotype inactive, single point] |  |
| Cc1cccc(Cn2nnc(C(=O)Nc3cc(C)ccc3C)c2N)c1 | inconclusive [phenotype inactive, single point] |  |
| Cc1cccc(Cn2cnc3c(cnn3-c3ccc(Cl)cc3)c2=O)c1 | inconclusive [phenotype inactive, single point] |  |
| CCOC(=O)c1c(C)oc2nc(C)nc(NCCCN3CCN(c4ccc(F)cc4)CC3)c12 | inconclusive [phenotype inactive, single point] |  |
| Cc1ccc(CN(Cc2cccn2-c2nnc(N3CCCC3=O)s2)C(=O)Nc2ccccc2C(F)(F)F)cc1 | active: 18.9 µM |  |
| CCc1cccc(NC(=O)CSc2nc3ccsc3c(=O)n2CC)c1 | inconclusive [phenotype inactive, single point] |  |
| COC(=O)c1ccccc1NC(=O)c1ccc2c(=O)n3c(nc2c1)CCCCC3 | inconclusive [phenotype inactive, partial curve, poor fit] |  |
| CSc1nn(Cc2cccc(F)c2)c(N(C(C)=O)C(C)=O)c1S(=O)(=O)c1ccccc1 | inconclusive [phenotype inactive, partial curve] |  |
| CCc1ccc(CN2CCc3nc(Nc4ccc5c(c4)OCCO5)ncc3C2)cc1 |  | inactive: 8.94% |
| CCOc1ccccc1CNC(=O)CCCN1C(=O)CCn2nc(-c3cccn3C)cc21 |  | inactive: -7.73% |
| Cc1oc(-c2ccc(Cl)cc2)nc1Cn1c(=O)cc(-c2ccccc2)c2c(C)nn(C)c21 | inconclusive [phenotype inactive, full curve, poor fit] |  |
| COC(=O)c1cc(NC(=O)CN(c2ccccc2)S(=O)(=O)N(C)C)ccc1Cl |  | inactive: -27.8% |
| CC(=O)c1cc(-c2ccccc2)n(CCC(=O)Nc2cc(C)cc(C)c2)c1C | inconclusive [phenotype inactive, single point] |  |
| CCOc1ccccc1NC(=O)CSc1cc(=O)n(CC)c2ccccc12 | inconclusive [phenotype inactive, single point] |  |
| COc1ccc(N(Cc2ccccc2)C(=O)c2nc(SC)ncc2Cl)cc1 | inconclusive [phenotype inactive, single point] |  |

| Compound | Potency | activity change, negative = inhibition |
| --- | --- | --- |
| COc1ccc(C2=Nc3ccc(C)cc3NC(c3ccc(Cl)cc3)=N2)cc1 | inconclusive [phenotype inactive, single point] |  |
| COc1ccc2c(Sc3ccc(Cl)cc3)c(C(=O)NCCCN3CCCCC3)[nH]c2c1 | inconclusive [phenotype inactive, partial curve, poor fit] |  |
| CCc1cccc(CC)c1NC1=NS(=O)(=O)c2ccccc21 | inconclusive [phenotype inactive, full curve, poor fit] |  |
| Cc1cccn2c(=O)cc(CSc3nnc(NC(=O)COc4ccccc4)s3)nc12 | inconclusive [phenotype inactive, single point] |  |
| Cc1ccc(NC(=O)c2c(C)oc3c2C2=NCCN2C=N3)cc1F | inconclusive [phenotype inactive, single point] |  |
| COc1ccc(-c2c(C)nn3c(C(F)(F)F)cc(-c4ccccc4)nc23)cc1OC |  | inactive: -21% |
| CCCS(=O)(=O)c1ncc(Cl)c(C(=O)Nc2c(C(=O)Nc3ccccc3)oc3ccccc23)n1 | active: 7.13 µM |  |
| CCn1cc(S(=O)(=O)c2cccc(Cl)c2)c(=O)c2cc(F)c(N3CCN(C)CC3)cc21 | inconclusive [phenotype inactive, single point] |  |
| Cc1ccccc1OCCCCn1c(CCNC(=O)C(C)(C)C)nc2ccccc21 | inconclusive [phenotype inactive, single point] |  |
| CCN(CC)CCCNC(=O)c1ccc(Cn2c(=O)[nH]c3cc(OC)c(OC)cc3c2=O)cc1 |  | inactive: -26.9% |
| COC(=O)c1c(-c2ccc(Cl)cc2)noc1N1CCN(c2ccc(F)cc2)CC1 | active: 3.77 µM |  |
| CC(=O)c1cccc(NC(=O)c2cc(C)nc3c2c(C)nn3-c2cccc(Cl)c2C)c1 | inconclusive [phenotype inactive, single point] |  |
| O=C(OCc1cc(=O)n2nc(C3CC3)sc2n1)c1ccccc1Cl | inconclusive [phenotype inactive, single point] |  |
| Cc1cccc(N2CCN(C(=O)c3ccc4c(Cl)c5c(nc4c3)CCCC5)CC2)c1C | inconclusive [phenotype inactive, single point] |  |
| CCn1cc(C(=O)NCCc2ccc(C)cc2)c(=O)c2cc(S(=O)(=O)N3CCC(C)CC3)ccc21 | inconclusive [phenotype inactive, single point] |  |
| COC(=O)c1ccc(NC(=O)C(=O)NCC(c2cccnc2)N2CCc3ccccc32)cc1 (configuration not stated) | inconclusive [phenotype inactive, single point] |  |
| CCOc1ccc(Sc2cc(C(=O)NCc3ccccc3Cl)c3ccccc3n2)cc1 | inconclusive [phenotype inactive, partial curve, poor fit] |  |
| Cc1ccccc1N1CC(c2nc3ccccc3n2Cc2ccc(Br)cc2)CC1=O (configuration not stated) | inconclusive [phenotype inactive, single point] |  |
| COc1ccccc1NC(=O)Cn1c(=O)n(CC2CCC(C(=O)NCCc3ccccc3)CC2)c(=O)c2ccccc21 (configuration not stated) | inconclusive [phenotype inactive, single point] |  |
